Experimental data taken from the BET-seq Pho4 binding data (Le et al. 2018).
Some of the results follow. Values were computed here from the reads of four pooled replicates and scatter widely.

What follows are sequences tested against T1, Pho4 (S. cerevisiae) (UniProt P07270) (assay: relative binding free energy (BET-seq); higher = weaker binding). Settings: reference: library average.
T1 sequence: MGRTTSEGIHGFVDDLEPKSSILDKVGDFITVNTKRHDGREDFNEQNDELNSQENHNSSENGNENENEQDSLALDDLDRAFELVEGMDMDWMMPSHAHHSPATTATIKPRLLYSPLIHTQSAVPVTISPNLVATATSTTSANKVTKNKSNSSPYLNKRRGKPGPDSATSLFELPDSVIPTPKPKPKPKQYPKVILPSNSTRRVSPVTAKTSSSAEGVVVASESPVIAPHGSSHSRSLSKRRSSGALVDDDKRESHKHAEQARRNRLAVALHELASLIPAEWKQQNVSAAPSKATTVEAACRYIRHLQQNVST

Sequence | relative binding free energy [kcal/mol]
GGCGGCACGTGTGGAA | 0.04
ATCGGCACGTGGTGTC | -0.17
CCTGGCACGTGGTGGG | -0.21
GGGGCCACGTGAGGGC | 0.26
TGGGGCACGTGCGGTT | -0.17
GATAACACGTGAGGTG | 0.21
GTGGACACGTGGTCCT | 0.18
GTTAGCACGTGGATAG | -0.07
GGGTCCACGTGATTGA | 0.17
TTGTGCACGTGTCTAA | -0.12
GGCGCCACGTGGAGGG | -0.07
GTTTACACGTGAAGGG | 0.26
GGCTGCACGTGATGTT | 0.16
GAAATCACGTGTATTG | 0.26
AAATTCACGTGCAGGG | 0.27
TGGGGCACGTGTGTGC | -0.17
CTATTCACGTGTAAGT | 0.28
GGTCACACGTGGTGTG | 0.07
GGTGGCACGTGTAGGC | -0.05
CGGGTCACGTGCGCGG | -0.04
GAATTCACGTGAGTGT | 0.48
TTAGTCACGTGACATT | 0.14
GTTGTCACGTGATGAT | 0.21

Sequence | relative binding free energy [kcal/mol]
TGGCCCACGTGTATGG | -0.06
ACTGGCACGTGTGGTT | -0.08
TTAGACACGTGTTCAT | 0.04
GGGAACACGTGCTTGT | 0
CTAGGCACGTGTGGAG | -0.11
TTGTACACGTGACGAG | 0.24
CGTCTCACGTGGGGAG | 0.04
TTGTTCACGTGGGATC | 0.24
AGCGTCACGTGGGTAT | -0.08
TGTAGCACGTGGAGCT | -0.17
GGGGACACGTGTCGTG | 0.03
AAGCGCACGTGTTTGT | -0.09
TGACTCACGTGAAGGG | 0.17
TTAAGCACGTGAAATG | 0.22
GAGGTCACGTGGTTTC | 0.22
ACTAGCACGTGGATGG | -0.1
GTCTGCACGTGGTAAT | -0.07
TCTGGCACGTGTGGGA | -0.01
TGTATCACGTGTGTTT | 0.15
GATTACACGTGAAGGG | 0.23
TATAGCACGTGAGAAG | 0.3
TTTTTCACGTGTGTCG | 0.21
CTGGTCACGTGTGTAA | 0.15

Sequence | relative binding free energy [kcal/mol]
TAAGTCACGTGCCGGT | 0.19
TCAGGCACGTGGTTTT | -0.2
ACATTCACGTGTGTTG | 0.15
GTTTGCACGTGGGACC | 0.12
TAGTACACGTGTGTGT | 0.08
TGTATCACGTGTAGGT | 0.08
TGTTTCACGTGCAGTC | 0.26
CGGGACACGTGTTGAA | 0.14
TAGTTCACGTGGTTTA | 0.2
TTTTCCACGTGTTGTT | 0.02
CGGTTCACGTGTTAGG | 0.35
AGATGCACGTGGATTA | -0.05
GGGCGCACGTGAGATG | 0.2
TGGGTCACGTGATTAA | 0.19
TGAGCCACGTGGTATT | -0.15
TCAAGCACGTGGTTGA | -0.08
GGTACCACGTGGATGT | -0.11
GGAGTCACGTGGCATA | 0.09
GGCTGCACGTGGTAAG | 0.08
AGGATCACGTGTGGAC | 0.24
GTAAGCACGTGGGTGG | -0.13
TGATACACGTGTAGCG | 0.11
GGGGGCACGTGGTTGG | -0.1

Sequence | relative binding free energy [kcal/mol]
GTACTCACGTGATAGT | 0.35
GTGATCACGTGTTTGG | 0.23
GAGTACACGTGAGGTC | 0.51
ATTCACACGTGGGTGA | 0.08
TTGAGCACGTGGTCGG | -0.16
TATTTCACGTGGGCGT | 0.09
GGGTGCACGTGATCAT | 0
GTGTTCACGTGTATGG | 0.23
TTTGTCACGTGGTCAA | 0.07
ATGGGCACGTGGTGTC | -0.1
AGAGGCACGTGTAAGA | 0.1
GGAGTCACGTGTGAAG | 0.05
TCATACACGTGGGGGT | -0.03
GCCATCACGTGTGTGG | 0.25
CGTTGCACGTGTGTTA | -0.04
TAGAGCACGTGCGGGA | -0.06
GGGTCCACGTGAGAGT | 0.2
AGATTCACGTGCCTGT | 0.42
GGGGCCACGTGCAAGG | 0.02
GGTTGCACGTGGTGAG | -0.01
TAAGCCACGTGAGTGT | 0.08
TTGGGCACGTGATACT | 0.05
CTTTTCACGTGTGGTA | 0.18

Sequence | relative binding free energy [kcal/mol]
ATATTCACGTGGGGAT | 0.11
TCGGGCACGTGGGTAG | -0.24
GTATTCACGTGCGTAG | 0.15
TAATTCACGTGGGCGG | 0.07
TGATTCACGTGTACGG | 0.24
TTTGGCACGTGGGACG | -0.12
ATGTCCACGTGGATGG | -0.06
CGAGTCACGTGTTTGA | 0.01
CAGATCACGTGGGTTG | -0.13
CGGTTCACGTGATATA | 0.43
GATCTCACGTGTTTGT | 0.12
GTCGGCACGTGTGTCT | -0.03
AGATGCACGTGCGTGA | -0.06
GTTTGCACGTGGTATC | 0.07
GGCTGCACGTGTAAAG | 0.21
GTTATCACGTGTTTAG | 0.12
AGTGTCACGTGTCCGT | 0.06
TTTATCACGTGTCTTG | 0.22
ATACTCACGTGAGGTT | 0.28
TAGGGCACGTGCAGTT | -0.15
GGTAGCACGTGAGTTC | 0.31
CTGTGCACGTGGGATT | -0.12
ATGAACACGTGAGTGG | 0.09
